For 92 compounds, Potency results are on record in PubChem BioAssay AID360 (National Center for Advancing Translational Sciences (NCATS), 2006).

Each structure is given as a SMILES string. About 550 (1.1%) of roughly 48,000 compounds were called active. Not shown: some 4% with an inconclusive outcome. Cut-off read from the data, not from the text of the source: active = potency below about 15 µM; inconclusive = mostly about 16 µM to 33 µM; inactive = weaker than that. Some of the results follow.
Potency is the fitted concentration of half-maximal effect.

For this assay, the target named is Lysosomal acid glucosylceramidase (Homo sapiens) (UniProt P04062). Kind of assay: Glucocerebrosidase.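 Note: the screen sought inhibitors.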 The conditions noted are these: purified enzyme, resorufin glucoside fluorescence (screen aimed at inhibitors), 20 min. The essentials: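 Normal human glucocerebrosidase (0.2 nM final) was assayed with resorufin β-D-glucopyranoside (30 uM final) in 50mM citric acid/KH2PO4, 10mM sodium taurocholate, 0.01% tween-20, pH 5.9. Compounds were titrated; fluorescence (Ex 548, Em 600) read after 20 min at RT.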
Chain of UniProt P04062 (P04062 whole entry, looked up): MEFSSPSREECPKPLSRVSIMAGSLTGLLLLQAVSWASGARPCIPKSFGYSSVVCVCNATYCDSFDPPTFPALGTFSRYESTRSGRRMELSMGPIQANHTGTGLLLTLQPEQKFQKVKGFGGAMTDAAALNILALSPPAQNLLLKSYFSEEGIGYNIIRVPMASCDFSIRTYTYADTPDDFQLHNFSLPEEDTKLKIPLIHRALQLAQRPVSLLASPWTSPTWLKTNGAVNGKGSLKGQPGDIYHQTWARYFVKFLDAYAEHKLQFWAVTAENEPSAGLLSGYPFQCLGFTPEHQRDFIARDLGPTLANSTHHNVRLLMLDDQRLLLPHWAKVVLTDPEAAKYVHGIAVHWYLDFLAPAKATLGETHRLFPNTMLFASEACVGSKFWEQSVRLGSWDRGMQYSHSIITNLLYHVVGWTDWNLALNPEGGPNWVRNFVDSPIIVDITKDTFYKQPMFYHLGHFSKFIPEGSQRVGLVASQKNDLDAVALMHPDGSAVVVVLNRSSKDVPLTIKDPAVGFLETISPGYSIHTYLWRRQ
On to `COc1ccc(C(=O)Nc2cccc(C(=O)N3CCN(C)CC3)c2)cc1`, for which the Potency is inactive: > 76.9 µM.
With `CCn1c(=O)c2c(nc3n2CC(C)CN3CCc2ccccc2)n(C)c1=O` (configuration not stated), the Potency was inactive: > 76.9 µM.
Regarding `O=C(c1cccc(Cl)c1)N1CCN(c2ccccn2)CC1`, the Potency is inactive: > 76.9 µM.
The value for `Cc1cc2cc(CN(Cc3ccco3)C(=O)NCc3ccccc3)c(=O)[nH]c2cc1C` was inactive: > 76.9 µM.
The entry for `CCc1nnc(NC(=O)c2ccc(COc3ccccc3)o2)s1` is “inactive”; for `CCOc1ccc(C(C)(C)C)cc1S(=O)(=O)N1CCOCC1` it is inactive: > 76.9 µM.
The value for `COC(=O)c1ccc2c(=O)n(CCCCCC(=O)N3CCN(c4ccc(F)cc4)CC3)c(=O)[nH]c2c1` was inactive: > 76.9 µM; that for `COc1ccc(C(C)=O)cc1COC(=O)Cn1cnc2ccccc2c1=O` was inactive: > 76.9 µM; that for `O=C(Cn1nnc(-c2ccc(N3CCOCC3)cc2)n1)OC1CCCCC1` was inactive: > 76.9 µM.
`C#CCOC(=O)c1ccccc1C(=O)n1nnc2ccccc21`: the Potency was inactive: > 76.9 µM.
In the case of `CC(=O)Nc1cc(-c2ccccc2)ccc1O`, the Potency is inactive: > 76.9 µM.
Take `Cc1ccc(C2C(=O)N(C3CCC(C)CC3)CC(=O)N2C2CC2)cc1` (configuration not stated): the Potency is inactive: > 76.9 µM.
`CC(CN1CCCCC1)OC(=O)c1cc2ccccc2o1` (configuration not stated): the Potency is inactive: > 76.9 µM.
The figure for `Cn1cc(/C=N/n2cnc3scc(-c4ccc(Cl)cc4)c3c2=O)c2ccccc21` is inactive: > 76.9 µM; for `Cc1occc1-c1nnc(SCCCC(=O)c2ccc(F)cc2)n1C` it is inactive: > 76.9 µM; for `C=CCn1c(SCC(=O)NCC(=O)OCC)nnc1-c1cccc(OC)c1` it is inactive: > 76.9 µM.
The figure for `CC(C)(C)c1cc(C(=O)NCc2cccnc2)ccn1` is inactive: > 76.9 µM.
The value for `CC(C)CN(CCCNC(=O)CC1Oc2ccccc2NC1=O)CC(C)C` (configuration not stated) was inactive: > 76.9 µM; that for `CSCCC(NC(=O)C1CCC(C)CC1)C(=O)O` (configuration not stated) was inactive: > 76.9 µM.
In the case of `COc1ccccc1N1CCN(C(=O)c2ccc(NC(C)=O)cc2)CC1`, the Potency was inactive: > 76.9 µM.
The value for `N=c1c(C(=O)NCc2ccc(F)cc2)cc2c(=O)n3ccccc3nc2n1CC1CCCO1` (configuration not stated) was inactive: > 76.9 µM; that for `CCOc1cccc2cc(C(=O)Nc3nccs3)c(=O)oc12` was inactive: > 76.9 µM; that for `CCOC(=O)c1ccccc1NS(=O)(=O)c1ccccc1F` was inactive: > 76.9 µM.
The figure for `O=C(NCc1ccco1)C1CC(=O)N(c2ccc(O)cc2)C1` (configuration not stated) is inactive: > 76.9 µM; for `COCCNC(=O)C(c1ccc(C)o1)N(CC1CCCO1)C(=O)Cn1nnc2ccccc21` (configuration not stated) it is inactive: > 76.9 µM.
On to `Cc1ccc(CNC(=O)c2sccc2-n2cccc2)cc1`, for which the Potency was inactive: > 76.9 µM.
The figure for `Cc1ccc(Cn2c(=O)c3c(nc4n3CCN4Cc3ccco3)n(C)c2=O)cc1` is inactive: > 76.9 µM; for `O=C(Nc1cccc(OC(=O)c2ccco2)c1)c1ccco1` it is inactive: > 76.9 µM.
As to `Cc1c(C(=O)NCCCN2CCCC2=O)oc2ccccc12`, the Potency is inactive: > 76.9 µM.
As for `COc1ccc(NC(=O)Nc2ccccc2C(N)=O)cc1OC`, the Potency is inactive: > 76.9 µM.
The figure for `C=CCC1c2cccc(C(=O)O)c2C(=O)N1c1ccc(F)cc1` (configuration not stated) is inactive: > 76.9 µM; for `O=C(NCCCN1CCOCC1)c1c(O)c2cc(Br)cc(Br)c2[nH]c1=O` it is inactive: > 76.9 µM.
The value for `COC(=O)c1cc(S(=O)(=O)N2CCC(C)CC2)ccc1F` was inactive: > 76.9 µM; that for `CC1CCCN(CCCNC(=O)c2coc3nc4ccccc4nc23)C1` (configuration not stated) was inactive: > 76.9 µM.
The value for `COc1ccccc1NC(=O)CCn1c(=O)sc2ccccc21` was inactive: > 76.9 µM; that for `CCC(=O)Nc1cc(C)c(NC(=O)c2ccco2)cn1` was inactive: > 76.9 µM.
For the compound `CC(C)Cn1c2c(c(O)c(C(=O)Nc3ncccc3O)c1=O)CCCC2`, the Potency is inactive: > 76.9 µM.
The value for `CCOc1ccc(NC(=O)CN2C(=O)C3CC=CCC3C2=O)cc1` (configuration not stated) was inactive: > 76.9 µM; that for `O=C1CC(c2ccco2)Cc2nc(N3CCN(Cc4ccc5c(c4)OCO5)CC3)ncc21` (configuration not stated) was inactive: > 76.9 µM; that for `COC(=O)CNC(=O)COC(=O)C(Cc1ccccc1)NC(=O)c1ccco1` (configuration not stated) was inactive: > 76.9 µM.
In the case of `Cn1nnnc1SCc1nc2ccccc2s1`, the Potency was inactive: > 76.9 µM.
The value for `c1ccc(Cn2nnc3c(NCC4CCCO4)ncnc32)cc1` (configuration not stated) was inactive: > 76.9 µM; that for `O=c1c2c3c(sc2nc2sc(C4CC4)nn12)CCCC3` was inactive: > 76.9 µM.
Take `CC(C)c1ccc2oc(-c3ccc(NC(=O)c4ncn[nH]4)cc3)nc2c1`: the Potency is inactive: > 76.9 µM.
Turning to `Cc1ccc(-n2c(Cc3cccn3C)nnc2SCC(=O)Nc2ccc3c(c2)OCO3)cc1`, the Potency was inactive: > 76.9 µM.
As to `CCOc1ccccc1Nc1nnc(SCc2ccc(C(=O)OC)o2)s1`, the Potency was inactive: > 76.9 µM.
As for `Cc1cc(NC(=O)c2cccc(C(=O)Nc3cc(C)on3)n2)no1`, the Potency was inactive: > 76.9 µM.
The value for `CCC(C)(C)NC(=O)C(c1ccccc1F)N(Cc1ccco1)C(=O)c1csnn1` (configuration not stated) was inactive: > 76.9 µM.
The value for `COCCN(CC(=O)Nc1cccc(C)c1)S(=O)(=O)c1ccc(S(=O)(=O)N2CCCC2)cc1` was inactive: > 76.9 µM; that for `Cc1ccc(CNC(=O)C2CCN(S(=O)(=O)N3CCOCC3)CC2)cc1` was “inactive”.
Consider `CCOC(=O)CSc1cn2c(n1)CCC2`, for which the Potency was inactive: > 76.9 µM.
Take `O=C(Nc1ccon1)c1cc(-c2ccccc2)nc2ccccc12`: the Potency was inactive: > 76.9 µM.
The value for `Cc1nc2c(-c3ccccc3)c(C)nn2c(C)c1CC(=O)O` was inactive: > 76.9 µM; that for `COc1cc(C)c(C#N)c(OC)n1` was inactive: > 76.9 µM; that for `O=C(Cn1cnc2ccccc2c1=O)NCCC(=O)N1CCN(c2ccccc2)CC1` was inactive: > 76.9 µM.
With `CCCn1c(CCc2ccccc2)nnc1SCC(=O)N1CCOCC1`, the Potency was inactive: > 76.9 µM.
On to `CCC(COC(=O)Nc1cccc(C)c1)NC(=O)OCC(C)C` (configuration not stated), for which the Potency was inactive: > 76.9 µM.
The value for `COCCCn1c(SCC(=O)OC2CCCCC2)nnc1-c1cccs1` was inactive: > 76.9 µM; that for `O=C(O)CSc1nnc(-c2ccncc2)n1CCc1ccccc1` was inactive: > 76.9 µM; that for `CC(=O)c1c(C)nn(CC(O)COc2ccc3c(c2)CCC3)c1C` (configuration not stated) was inactive: > 76.9 µM.
For `Cc1cc(NC(NC(=O)c2ccco2)(C(F)(F)F)C(F)(F)F)no1`, the Potency was inactive: > 76.9 µM.
The figure for `Cc1cc(C(F)(F)F)c2sc(N)nc2n1` is inactive: > 76.9 µM; for `Cc1cc2c(c(=O)n1CCc1ccccc1)C(C(C)C)C(C#N)=C(N)O2` (configuration not stated) it is inactive: > 76.9 µM; for `Cc1cc2oc(=O)cc(CN3CCCc4ccccc43)c2cc1C` it is inactive: > 76.9 µM.
The value for `Cc1nn(-c2ccc(Cl)cc2)c2[nH]c(=O)c(CNCc3ccc4c(c3)OCO4)cc12` was “inactive”; that for `CC(=O)NC1=NC(=O)CS1` was inactive: > 76.9 µM.
The value for `CCCS(=O)(=O)N1CCCC(C(=O)NCCCN(CC)c2cccc(C)c2)C1` (configuration not stated) was inactive: > 76.9 µM; that for `Cc1n[nH]c(C)c1SCC(=O)Nc1ccc(F)cc1` was inactive: > 76.9 µM; that for `Cn1c(=O)cc(OCCCC(=O)N2CCN(c3ccccn3)CC2)c2ccccc21` was inactive: > 76.9 µM.
Turning to `CCOC(=O)c1c(NC(=O)c2noc3c2CCCC3)sc2c1CCCC2`, the Potency was inactive: > 76.9 µM.
In the case of `COc1cc(Cl)c(S(=O)(=O)N2CC(C)OC(C)C2)cc1Cl` (configuration not stated), the Potency is inactive: > 76.9 µM.
For the compound `CCC(c1nnnn1C1CCCCC1)N(Cc1ccco1)Cc1cc2ccc(OC)cc2[nH]c1=O` (configuration not stated), the Potency was inactive: > 76.9 µM.
Take `Cc1ccc(CCNC(=O)C2CCN(S(=O)(=O)N3CCCC3)CC2)cc1`: the Potency is inactive: > 76.9 µM.
For the compound `Fc1ccccc1OCCSc1nc2ccccc2o1`, the Potency is inactive: > 76.9 µM.
For `CC1(C)CC(=O)C2=C(C1)OC(N)=C(C#N)C2C#Cc1ccccc1` (configuration not stated), the Potency entry was “inactive”.
The value for `CCCc1cc(=O)[nH]c(/N=C(\N)Nc2ccccc2)n1` was inactive: > 76.9 µM; that for `Cc1c(C(=O)NCc2cccnc2)oc2c1C(=O)CC(C)(C)C2` was inactive: > 76.9 µM.
The figure for `C/C=C(\C)CN1CCN(c2ccccc2F)CC1` is inactive: > 76.9 µM.
The value for `CC(C)COC(=O)NCCCOC(=O)Nc1ccccc1` was inactive: > 76.9 µM; that for `COc1ccc(Nc2nc(C)cc(C)c2C#N)cc1` was inactive: > 76.9 µM.
For the compound `Cc1noc(NS(=O)(=O)c2ccc(NC(=O)CSc3nc4ccccc4s3)cc2)c1C`, the Potency was inactive: > 76.9 µM.
The value for `CCOC(=O)Cc1csc(NC(=O)C(C)(C)C)n1` was inactive: > 76.9 µM.
As to `c1ccc(-c2nc(C3CCCCC3)no2)cc1`, the Potency was inactive: > 76.9 µM.
Regarding `COCCCNC(=O)CS(=O)Cc1nc(-c2cccc(OC)c2)oc1C` (configuration not stated), the Potency is inactive: > 76.9 µM.
The figure for `CCn1c(SCC(=O)Nc2nnc(C)s2)nnc1-c1ccco1` is inactive: > 76.9 µM; for `COc1ccc(-c2nsc3c(N4CCN(S(=O)(=O)c5ccccc5)CC4)ncnc23)cc1` it is inactive: > 76.9 µM; for `Nn1c(SCC(=O)N2CCCc3ccccc32)nnc1-c1ccc(Cl)cc1` it is inactive: > 76.9 µM.
As for `O=C(Nn1cc(C(=O)N2CCN(c3ccccc3F)CC2)c2ccccc2c1=O)c1cnccn1`, the Potency entry was “inactive”.
The figure for `CN1CCN(c2nc3c(c(=O)n(C)c(=O)n3C)n2CC(=O)C23CC4CC(CC(C4)C2)C3)CC1` is inactive: > 76.9 µM; for `COc1ccc(C(=O)Oc2c(CN3CCOCC3)cc(Cl)c3cccnc23)cc1` it is inactive: > 76.9 µM.
The value for `Cc1cc2cc(C(c3nnnn3Cc3ccco3)N3CCc4ccccc43)c(=O)[nH]c2cc1C` (configuration not stated) was inactive: > 76.9 µM; that for `COc1ccccc1NC(=O)Nc1ccnn1Cc1cccs1` was inactive: > 76.9 µM.
